We go through 54 sequences from PMC7819943, “Rice protein-binding microarrays: a tool to detect cis-acting elements near promoter regions in rice”.

The list shows a part of the results.

The test deals with T1, OsWOX13 (Oryza sativa, UniProt Q5QMM3 1-267).
T1 sequence: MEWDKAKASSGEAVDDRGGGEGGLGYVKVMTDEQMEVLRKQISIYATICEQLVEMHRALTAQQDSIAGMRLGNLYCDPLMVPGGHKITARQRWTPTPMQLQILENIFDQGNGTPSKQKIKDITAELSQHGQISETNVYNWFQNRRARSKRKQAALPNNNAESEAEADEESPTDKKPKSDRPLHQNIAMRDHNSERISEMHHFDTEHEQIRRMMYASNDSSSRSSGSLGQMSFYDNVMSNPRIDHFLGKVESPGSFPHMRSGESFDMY
As to the kind of experiment: protein-binding microarray (RPBM); PBS, 2% BSA, 51.3 ng/ul salmon testes DNA, 50 uM zinc acetate, 200 nM TF, 25 C, 1 h; high values mean tight binding. Particulars: protein: recombinant; tags: N-terminal polyhistidine and DsRed monomer fusion (pET32a); label: CyDye5-dUTP incorporated in the synthesized complementary strand; 3' TTTTT single-stranded linker to array surface; dsDNA, one strand shown. In a few lines: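 The binding signal is fluorescence intensity per array feature (arbitrary units). Readings came from an Axon 4000B scanner after a washed, 2% BSA-blocked, double-stranded custom Agilent array had been incubated for 1 h at 25 °C with 200 nM protein and 50 µM zinc acetate. The protein was a Ni–NTA-purified transcription factor fused N-terminally to polyhistidine and DsRed, expressed in E. coli BL21-CodonPlus.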
“CGGTTGAGGAATTACTGTGATTGAAATTCGACCATAAGATCGGAGTCACCTAGTGCAG”: the binding signal was 29300 fluorescence intensity (a.u.).

Regarding “TCAAAATTATATTAATATATTGCTAATACTTATGCGCTAACGGAGTCACCTAGTGCAG”, the binding signal was 22700 fluorescence intensity (a.u.).

On to “GATATATATAATGAAATTAATTTGGTGTTGTAGATGTTGCCGGAGTCACCTAGTGCAG”, for which the binding signal was 17200 fluorescence intensity (a.u.).

In the case of “TTATTAATTTGTAATAGGTGTATTTCGGTCTTATTAAACTCGGAGTCACCTAGTGCAG”, the binding signal is 19600 fluorescence intensity (a.u.).

In the case of “TGCGGATCTAATTGCCACGTAAGCGCCACGACAATGACACCGGAGTCACCTAGTGCAG”, the binding signal was 3380 fluorescence intensity (a.u.).

On to “TAATAATTAGTAGTGGGTGATGATATTGCACACTTGCATACGGAGTCACCTAGTGCAG”, for which the binding signal is 17000 fluorescence intensity (a.u.).

Consider “GTTAAAATTAGAGATGATGTGACTGAAAAGTTGTGTGTGTCGGAGTCACCTAGTGCAG”, for which the binding signal is 12200 fluorescence intensity (a.u.).

With “TTTAGACACTAATTTAGAGTATTAAATATATACTACTTATCGGAGTCACCTAGTGCAG”, the binding signal is 10800 fluorescence intensity (a.u.).

Consider “ACTGCATTTAATTATGATCTGCCTATCTTTATATAAGTGCCGGAGTCACCTAGTGCAG”, for which the binding signal is 12700 fluorescence intensity (a.u.).

Regarding “AGTAAATGAGCATCATTGAATGCGCTGCACACATGTAATGCGGAGTCACCTAGTGCAG”, the binding signal is 6240 fluorescence intensity (a.u.).

Regarding “GTAATTAATGTTTATGCATGGGTTTAAAATTGTAGATGGACGGAGTCACCTAGTGCAG”, the binding signal was 9780 fluorescence intensity (a.u.).

Take “CTGGTTAATTACTCTTGTTAAGAAATTGTTAGTGAAGTAACGGAGTCACCTAGTGCAG”: the binding signal is 16400 fluorescence intensity (a.u.).

On to “AAGAGTTAGATGGCATCAATCAAGCTCGCGGAGGCTGACCCGGAGTCACCTAGTGCAG”, for which the binding signal is 11100 fluorescence intensity (a.u.).

“TTATTAACTGAAATTACGTAAATGCCCCTCCCTTTCTTTTCGGAGTCACCTAGTGCAG”: the binding signal is 8870 fluorescence intensity (a.u.).

Take “TACACAGATTGCGACTAATTTGTGAGACGAATCTTTTAAGCGGAGTCACCTAGTGCAG”: the binding signal was 15400 fluorescence intensity (a.u.).

With “GGTGATGGATCCCCACATTGTCGTCGCGTCCCCTCCCATCCGGAGTCACCTAGTGCAG”, the binding signal was 3940 fluorescence intensity (a.u.).

On to “TATATATATATATATATATATATATATATAACCATGCAGCCGGAGTCACCTAGTGCAG”, for which the binding signal is 11200 fluorescence intensity (a.u.).

Consider “CTATGATTAGATAATGTTTACTGTAGCATCACATAGGCTACGGAGTCACCTAGTGCAG”, for which the binding signal was 47300 fluorescence intensity (a.u.).

In the case of “CCACAGTAGATTGACCCATTTTAATGTGTTAGGATGCTGCCGGAGTCACCTAGTGCAG”, the binding signal was 22900 fluorescence intensity (a.u.).

Consider “ATGACCCCTTGATTGCATAACACACATACTAGGTCATACTCGGAGTCACCTAGTGCAG”, for which the binding signal is 17800 fluorescence intensity (a.u.).

As for “TCCAATCATTGCAGGATAGATGCCGTCGTCTTCTTGGAGACGGAGTCACCTAGTGCAG”, the binding signal was 13800 fluorescence intensity (a.u.).

On to “CAAATTGAGAGAAACATGCAGATTGAGCATGATTAGGGTACGGAGTCACCTAGTGCAG”, for which the binding signal was 22600 fluorescence intensity (a.u.).

For the sequence “TGGGCTCCAATTTCAATTTCGATTTGAATTGCAATTTCGACGGAGTCACCTAGTGCAG”, the binding signal was 4960 fluorescence intensity (a.u.).

“ATGATGGTCGTTTAATTCTTCAATTCAATTTATTTGGTTGCGGAGTCACCTAGTGCAG”: the binding signal was 4090 fluorescence intensity (a.u.).

“TGTTGATGAGAAGTACTACTACATTATCTGGAAACTCTGCCGGAGTCACCTAGTGCAG”: the binding signal was 7530 fluorescence intensity (a.u.).

In the case of “TTCTGAATTATGGATGACAAAATTTGATGAAAATCACACGCGGAGTCACCTAGTGCAG”, the binding signal is 8250 fluorescence intensity (a.u.).

In the case of “CGGTCCAATTGTTGATTTAAAAGATTAGGTCGGATAGATCCGGAGTCACCTAGTGCAG”, the binding signal was 8490 fluorescence intensity (a.u.).

In the case of “TTGGAAATCCAATCTATTTTCTCGTATTCGTGTGGGAAATCGGAGTCACCTAGTGCAG”, the binding signal was 3660 fluorescence intensity (a.u.).

For “GTTTGATGAGTCCGGAATAGCATATAGCACATGGAATTGGCGGAGTCACCTAGTGCAG”, the binding signal was 3510 fluorescence intensity (a.u.).

With “TCTAACTTGGTGACAAATTGAGGGATGTAAAGTGCACTTTCGGAGTCACCTAGTGCAG”, the binding signal is 5210 fluorescence intensity (a.u.).

Take “CTAAATGATTACTTATGAAAGTTATATACTAAAGACCATGCGGAGTCACCTAGTGCAG”: the binding signal is 39500 fluorescence intensity (a.u.).

“AAGTGTGATTTCCTCGTTAGTTCGATACGTTTCACGTTTGCGGAGTCACCTAGTGCAG”: the binding signal is 7910 fluorescence intensity (a.u.).

Turning to “TCGTCTCAATCAACGCAAACCACGGAAATACTCTGGCAAGCGGAGTCACCTAGTGCAG”, the binding signal is 26700 fluorescence intensity (a.u.).

“ATCTCGCCTCTTTGCGCTTTCGCTGGAACCCTATTTCTCCCGGAGTCACCTAGTGCAG”: the binding signal was 3350 fluorescence intensity (a.u.).

As to “GAAACCCATCCAATTAGTCAGATAGAGATATCCTGCCTTCCGGAGTCACCTAGTGCAG”, the binding signal is 5170 fluorescence intensity (a.u.).

With “TCGTTAAACTTGAGTTAATAGGATTACTATCCCGTTAAAACGGAGTCACCTAGTGCAG”, the binding signal was 6140 fluorescence intensity (a.u.).

As to “TTGAATGGGAGGTGATTAGTGAGATAAGTATTACTCTAGACGGAGTCACCTAGTGCAG”, the binding signal is 3220 fluorescence intensity (a.u.).

Regarding “TACAATTAGACAATTAATTATTTCGGTAGAGACTGGAAACCGGAGTCACCTAGTGCAG”, the binding signal was 36500 fluorescence intensity (a.u.).

“CACATCGTTTCAATTTCAATCAAACTTCCAATGTTGACGTCGGAGTCACCTAGTGCAG”: the binding signal is 8280 fluorescence intensity (a.u.).

For the sequence “ATACATCCACCAATCACCATGCAAGTTACCCTCCATCCAGCGGAGTCACCTAGTGCAG”, the binding signal was 3730 fluorescence intensity (a.u.).

As for “ATACTTATATGTAAATTGAATATATTCACTGACAAGATGCCGGAGTCACCTAGTGCAG”, the binding signal was 7940 fluorescence intensity (a.u.).

As to “GGTCAAAACTGGGATTAAATTTGTGAGGGTGGTGGCCTTGCGGAGTCACCTAGTGCAG”, the binding signal was 9940 fluorescence intensity (a.u.).

For the sequence “GAGAGATTGATCAGCAGCTGGTTCATATTGCATTTGAATACGGAGTCACCTAGTGCAG”, the binding signal is 20600 fluorescence intensity (a.u.).

For “AACTGATTAGACCAATCAAGTACAGACCAAGGAGCATCATCGGAGTCACCTAGTGCAG”, the binding signal was 20900 fluorescence intensity (a.u.).

Turning to “AAATTTAATATTGAAAATTTAAATTTTGGATGATAAGCATCGGAGTCACCTAGTGCAG”, the binding signal was 4150 fluorescence intensity (a.u.).

Consider “AACTAATCTTTAACTTATAATTTCTCATATACTATAATGTCGGAGTCACCTAGTGCAG”, for which the binding signal was 5510 fluorescence intensity (a.u.).

Take “CTATTAAATTAGAGAATAACTTCAAAAGCAATTATTGAGACGGAGTCACCTAGTGCAG”: the binding signal was 6740 fluorescence intensity (a.u.).

Turning to “CCTCATCCCTGATTGTGATTTTCTTTCCACACCACCCGGACGGAGTCACCTAGTGCAG”, the binding signal is 19500 fluorescence intensity (a.u.).

With “TCCCCAAACATGTCCTAATTAAGACTCTCAAGGAGTAGTACGGAGTCACCTAGTGCAG”, the binding signal was 4300 fluorescence intensity (a.u.).

Take “TTCAAAATTGATATTATTACACAAGCTATATTGAGTTATTCGGAGTCACCTAGTGCAG”: the binding signal is 11500 fluorescence intensity (a.u.).

As to “TTCCATGATTTCTTGGTGATCCGCTTTGCCAATGCAAGTGCGGAGTCACCTAGTGCAG”, the binding signal is 5310 fluorescence intensity (a.u.).

Take “AAATAATTGATATTGTAAGTGATCAATCTCAGTGCTTTTCCGGAGTCACCTAGTGCAG”: the binding signal is 39300 fluorescence intensity (a.u.).

As to “CGCATGGGATAATCAATTATCCCGTGCGGTCCACTTAACCCGGAGTCACCTAGTGCAG”, the binding signal is 6640 fluorescence intensity (a.u.).

As for “TTTAAGATGATCAGATTTCTAATTGCAGTTCACCTTAACTCGGAGTCACCTAGTGCAG”, the binding signal was 7420 fluorescence intensity (a.u.).
